Data published in PubChem BioAssay AID1479 (National Center for Advancing Translational Sciences (NCATS), 2009).
Several values for one entry are separate records, joined by “and”; a condition that tells them apart may be missing. Equal values may be shown once. The campaign covered roughly 280,000 compounds. About 820 (0.29%) were called active. Inconclusive means that the source gave no clear call. Such entries were picked first, then a sample of the others. Calls come from the whole dose curve; as a rule, active = well fitted curve in either direction with a large enough effect; inconclusive = small, poorly fitted or top-dose-only effect; inactive = flat fitted curve, though single readings scatter. Where the call is inconclusive, the potency comes from a doubtful curve fit. Some structures have more than one record in an assay (separate samples or runs), and their calls can disagree.

Experiment: Total Fluorescence Counterscreen for Inhibitors of the Interaction of Thyroid Hormone Receptor and Steroid Receptor Coregulator 2
Settings: TRb/SRC2 Texas Red total fluorescence interference; series mostly up to 106 µM
Summary of the method: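 Human TRβ ligand-binding domain (0.6 uM) and Texas Red SRC2 peptide (20 nM) in Tris buffer with 1 uM T3 and 5% DMSO were incubated with pinned compound for 5 hr at ambient temperature. Total fluorescence was computed as S + 2P (555/632 nm).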
Potency is the fitted concentration of half-maximal effect; tags give direction and shape of the fitted curve or compound fluorescence and quenching.

Question: With `CC(C)N(Cc1ccccc1)C(=O)CCS(=O)(=O)c1ccc2c(c1)oc(=O)n2C` as the compound, how does the Potency read?
Answer: Its Potency is inconclusive: 0.178 µM [falling, full curve, poor fit].

Question: Which Potency does the source give for `COc1ccc(C(=O)NCCn2cc(SCc3ccc(C(F)(F)F)cc3)c3ccccc32)cc1OC` here?
Answer: Its Potency is inconclusive: 10 µM [quencher, full curve].

Question: For `CN(C)c1ccc(NC(=O)Oc2ccccc2)cc1`, which Potency is on record?
Answer: The Potency was inconclusive: 44.7 µM [fluorescent, partial curve].

Question: For `COC(=O)[C@@H]1C[C@H]1[C@@H](NP(=O)(c1ccccc1)c1ccccc1)c1ccccc1`, which Potency is on record?
Answer: The Potency was “inactive”.

Question: With `CN1CC[C@@]2(C)c3cc(O)ccc3N(C)C12` (stereo not given in full) as the compound, how does the Potency read?
Answer: Its Potency is “inactive”.

Question: Which Potency does the source give for `CCOc1ccc(C(=O)Nc2ccc3nc(SCC(=O)N4CCCC4)sc3c2)cc1` here?
Answer: Its Potency is inconclusive: 79.4 µM [falling, partial curve, poor fit].

Question: For `Cc1ccc(C(=O)c2cc(Br)ccc2N)cc1`, which Potency is on record?
Answer: The Potency was “inactive”.

Question: For `O=C1NC(=O)N(c2cccc(Cl)c2)C(=O)/C1=C\c1ccc(Sc2nc3ccccc3[nH]2)o1`, which Potency is on record?
Answer: The Potency was active: 22.4 µM [fluorescent].

Question: With `C[C@H]1OC[C@@H](C[N+](C)(C)C)O1` as the compound, how does the Potency read?
Answer: Its Potency is “inactive”.

Question: With `C=C/C(=C/C(=O)C[C@H](C)C[C@@H](C)CC[C@H](O)[C@H](C)C(=O)C[C@@H](O)[C@H](C)[C@@H](C)OC(=O)C[C@@H](O)C1=C(C)C(=O)OC1=O)CC` as the compound, how does the Potency read?
Answer: Its Potency is inconclusive: 0.0224 µM [quencher, full curve].

Question: For `O=C(Nc1cc(C(F)(F)F)cc(C(F)(F)F)c1)c1cccn(Cc2ccccc2Cl)c1=O`, which Potency is on record?
Answer: Its Potency is inconclusive: 0.0631 µM [falling, full curve, poor fit].

Question: For `CC(C)(C)[C@]1(O)C[C@@H]2OC(=O)C[C@@]23C(=O)O[C@@H]2OC(=O)[C@H](O)[C@]213`, which Potency is on record?
Answer: Its Potency is inconclusive: 2.51 µM [quencher, full curve].

Question: With `O=C(O)c1[nH]c(=O)[nH]c(=O)c1F` as the compound, how does the Potency read?
Answer: Its Potency is inconclusive: 25.1 µM [rising, single point].

Question: For `CCN(CC)C(=O)SCc1ccc(Cl)cc1`, which Potency is on record?
Answer: Its Potency is “inactive”.

Question: With `C[C@H]1CC[C@]2(OC1)O[C@@H]1C[C@@H]3[C@@H]4CC[C@H]5C[C@@H](O)CC[C@]5(C)[C@@H]4CC(=O)[C@@]3(C)[C@H]1[C@@H]2C` as the compound, how does the Potency read?
Answer: The Potency was inconclusive: 2.82 µM [falling, full curve, poor fit].

Question: For `O=c1cc(-c2ccc(O)c(O)c2)oc2cc(O)cc(O)c12`, which Potency is on record?
Answer: Its Potency is inconclusive: 44.7 µM [quencher, partial curve].

Question: Which Potency does the source give for `CS(=O)(=O)c1cc(C(F)(F)F)ccc1C(=O)c1cnoc1C1CC1` here?
Answer: Its Potency is “inactive”.

Question: With `C/C(O)=C(\C#N)C(=O)Nc1cc(Br)ccc1Br` as the compound, how does the Potency read?
Answer: The Potency was “inactive and inconclusive: 7.08 µM [quencher, full curve]”.

Question: With `COc1c(O)c2c(=O)cc(OC)c3c4c(OC)cc(=O)c5c(O)c(OC)c(C[C@@H](C)OC(=O)c6ccccc6)c(c(c1C[C@@H](C)OC(=O)Oc1ccc(O)cc1)c23)c54` as the compound, how does the Potency read?
Answer: Its Potency is inconclusive: 44.7 µM [fluorescent, partial curve].

Question: For `O=C(N=Nc1c(O)[nH]c(=O)[nH]c1=O)C1COc2ccccc2O1` (stereo not given), which Potency is on record?
Answer: The Potency was “inactive”.

Question: Which Potency does the source give for `COc1ccc(CCn2c(O)c(/C=N/NC(=O)c3ccncc3)c(=O)[nH]c2=O)cc1OC` here?
Answer: The Potency was “inactive”.

Question: Which Potency does the source give for `CC(CNC(=O)c1ccc(CSc2nc3ccncc3n2Cc2ccc(F)cc2)cc1)c1ccccc1` (stereo not given) here?
Answer: The Potency was inconclusive: 12.6 µM [quencher, full curve].

Question: For `C[C@H]1C(=O)O[C@H]2CCN3CC=C(COC(=O)[C@](C)(O)[C@@]1(C)O)C23` (stereo not given in full), which Potency is on record?
Answer: The Potency was “inactive”.

Question: Which Potency does the source give for `COc1ccc(N2C(=O)NC(=O)/C(=C\c3ccc([N+](=O)[O-])s3)C2=O)cc1` here?
Answer: The Potency was inconclusive: 35.5 µM [fluorescent, partial curve].

Question: With `CN1C[C@@H](C(=O)N[C@@]2(C)O[C@]3(O)C4CCCN4C(=O)[C@@H](Cc4ccccc4)N3C2=O)C=C2c3cccc4[nH]cc(c34)C[C@@H]21` (stereo not given in full) as the compound, how does the Potency read?
Answer: The Potency was inconclusive: 35.5 µM [fluorescent, partial curve].

Question: With `Cc1ccc(S(=O)(=O)c2nnn3c2nc(N2CCC(C(N)=O)CC2)c2cc(Cl)ccc23)cc1C` as the compound, how does the Potency read?
Answer: The Potency was inconclusive: 20 µM [quencher, full curve].

Question: For `Cc1ccc(NC(=O)Cn2cc(C(=O)c3ccccc3)c3ccccc32)cc1`, which Potency is on record?
Answer: Its Potency is active: 0.0251 µM [quencher].

Question: With `CC(C)CCn1c(N)c(C(=O)OCC2CCCO2)c2nc3ccccc3nc21` (stereo not given) as the compound, how does the Potency read?
Answer: The Potency was “inactive”.

Question: Which Potency does the source give for `CN(C)c1ccc(/C=C/C=C2/C(=O)NC(=O)N(c3ccccc3)C2=O)cc1` here?
Answer: Its Potency is active: 3.16 µM [fluorescent].

Question: Which Potency does the source give for `C=C1[C@@H]2C[C@@]3([C@H]1O)[C@H]1C[C@@H]4[C@@]5(C)CC[C@H](O)[C@]4([C@H]1N(CC)C5)[C@H]3C[C@H]2O` here?
Answer: Its Potency is “inactive”.

Question: For `CCOc1ccc(-c2nc3cc(NC(=O)COc4cccc(C)c4)ccc3o2)cc1`, which Potency is on record?
Answer: Its Potency is active: 14.1 µM [quencher].

Question: For `N#CC1=C(N)Oc2c(c(=O)oc3ccccc23)C1c1ccccc1OC(=O)c1cccs1` (stereo not given), which Potency is on record?
Answer: The Potency was inconclusive: 100 µM [falling, partial curve, poor fit].

Question: Which Potency does the source give for `CCc1ccc(N2C(=O)NC(=O)/C(=C/c3cccn3CCOc3ccc(C(C)CC)cc3)C2=O)cc1` (stereo not given) here?
Answer: The Potency was inconclusive: 126 µM [quencher, partial curve].

Question: For `COC(=O)c1c(C)n(Cc2ccco2)c2ccc(O)cc12`, which Potency is on record?
Answer: The Potency was “inactive”.

Question: Which Potency does the source give for `O=c1[nH]c(=S)[nH]c(O)c1N=Nc1ccc(S(=O)(=O)N2CCOCC2)cc1` here?
Answer: The Potency was “inactive”.

Question: For `COc1ccc(CCNC(=O)CCCCn2c(=O)c3ccccc3n(Cc3ccccc3Cl)c2=O)cc1OC`, which Potency is on record?
Answer: Its Potency is inconclusive: 0.0009 µM [falling, full curve, poor fit].

Question: With `CC(C)(C)c1nc(N2CCN(C(=O)c3ccco3)CC2)c2nnn(Cc3ccccc3Cl)c2n1` as the compound, how does the Potency read?
Answer: Its Potency is “inactive”.

Question: For `FC(F)(F)c1cccc(N2CCNCC2)c1`, which Potency is on record?
Answer: The Potency was inconclusive: 100 µM [falling, partial curve, poor fit].

Question: For `O=P(O)(O)C(Cl)(Cl)P(=O)(O)O`, which Potency is on record?
Answer: The Potency was “inactive”.

Question: Which Potency does the source give for `c1ccc2cc(CC3=NCCN3)ccc2c1` here?
Answer: The Potency was “inactive”.

Question: For `COc1cccc(C(=O)Nc2ccc3nc(SCC(=O)N(C)c4ccccc4)sc3c2)c1`, which Potency is on record?
Answer: The Potency was inconclusive: 251 µM [quencher, partial curve].

Question: For `O=C1NO[C@@H]2CN[C@@H](C(=O)O)[C@H]12`, which Potency is on record?
Answer: Its Potency is “inactive”.

Question: Which Potency does the source give for `COc1ccc(CN2C(=O)NC(=O)/C(=C/c3ccc([N+](=O)[O-])o3)C2=O)cc1` here?
Answer: The Potency was inconclusive: 31.6 µM [fluorescent, partial curve].

Question: For `Cc1ccc(/C=C2\C(=O)NC(=O)N(CCc3ccc(F)cc3)C2=O)o1`, which Potency is on record?
Answer: The Potency was inconclusive: 31.6 µM [fluorescent, full curve].

Question: Which Potency does the source give for `Cc1cn(C2CC(O)C(CO)O2)c(=O)[nH]c1=O` (stereo not given) here?
Answer: The Potency was inconclusive: 0.0007 µM [quencher, full curve].

Question: For `CCCCNC(=O)/C(C#N)=c1\s/c(=C\c2ccccc2OC(F)F)c(=O)n1CCCOC`, which Potency is on record?
Answer: Its Potency is inconclusive: 0.0063 µM [falling, full curve, poor fit].

Question: With `CN(C)[C@@H]1C(=O)C(C(N)=O)=C(O)[C@@]2(O)C(=O)C3=C(O)c4c(O)cccc4[C@@](C)(O)[C@H]3[C@H](O)[C@@H]12` as the compound, how does the Potency read?
Answer: The Potency was active: 15.8 µM [quencher].

Question: With `CN1C(=O)CCS(=O)(=O)C1c1ccc(Cl)cc1` (stereo not given) as the compound, how does the Potency read?
Answer: The Potency was inconclusive: 112 µM [quencher, partial curve].

Question: For `Cc1cc(C2CC2)nc(Nc2ccccc2)n1`, which Potency is on record?
Answer: Its Potency is “inactive”.

Question: For `c1cc(-c2cnn3cc(-c4ccc(OCCN5CCCCC5)cc4)cnc23)ccn1`, which Potency is on record?
Answer: Its Potency is inconclusive: 708 µM [falling, partial curve, poor fit].

Question: With `COc1ccc(NC(=O)CCn2cnc3onc(-c4ccc(F)cc4)c3c2=O)cc1OC` as the compound, how does the Potency read?
Answer: The Potency was inconclusive: 0.0071 µM [falling, full curve, poor fit].

Question: With `CCOC(=O)C1CCCN(c2ccc([N+](=O)[O-])c3nonc23)C1` (stereo not given) as the compound, how does the Potency read?
Answer: The Potency was active: 50.1 µM [fluorescent].

Question: With `NCC(CP(=O)(O)O)c1ccc(Cl)cc1` (stereo not given) as the compound, how does the Potency read?
Answer: Its Potency is inconclusive: 1.41 µM [quencher, full curve].

Question: For `O=c1c(O)c(-c2ccc(O)c(O)c2)oc2cc(O)cc(O)c12`, which Potency is on record?
Answer: The Potency was inconclusive: 44.7 µM [quencher, partial curve].

Question: Which Potency does the source give for `CCCCn1c(NS(=O)(=O)c2ccccc2)c(C(=O)OCC)c2nc3ccccc3nc21` here?
Answer: The Potency was inconclusive: 28.2 µM [falling, single point].

Question: With `c1ccc(C2CC2)c(OCC2=NCCN2)c1` as the compound, how does the Potency read?
Answer: Its Potency is active: 44.7 µM [fluorescent].

Question: For `CC(C(=O)Nc1ccc(Cl)cc1Cl)N1CC=C(c2ccccc2)CC1` (stereo not given), which Potency is on record?
Answer: The Potency was inconclusive: 3.55 µM [falling, full curve, poor fit].

Question: Which Potency does the source give for `Cc1cc(O)c2c(c1)C(=O)c1cc(O)cc(O)c1C2=O` here?
Answer: Its Potency is inconclusive: 112 µM [quencher, partial curve].

Question: With `Brc1ccccc1` as the compound, how does the Potency read?
Answer: The Potency was “inactive”.

Question: Which Potency does the source give for `CNC(=O)Oc1cccc(-c2cn3cc(OC(=O)NC)ccc3n2)c1` here?
Answer: The Potency was inconclusive: 35.5 µM [fluorescent, partial curve].

Question: For `O=C(O)C(F)(F)C(F)(F)C(F)(F)C(F)(F)C(F)(F)C(F)(F)C(F)(F)C(F)(F)F`, which Potency is on record?
Answer: The Potency was active: 126 µM [quencher].

Question: For `C=CCn1c(O)c(C(CC)=Nc2ccc(N(C)C)cc2)c(=O)[nH]c1=O`, which Potency is on record?
Answer: Its Potency is inconclusive: 50.1 µM [fluorescent, partial curve].

Question: Which Potency does the source give for `C#C[C@]1(O)CC[C@H]2[C@@H]3CCC4=CC(=O)CCC4(C)[C@H]3CCC21C` (stereo not given in full) here?
Answer: Its Potency is inconclusive: 1.26 µM [quencher, full curve].

Question: With `O=C1C=Cc2ccccc2C1=O` as the compound, how does the Potency read?
Answer: Its Potency is inconclusive: 39.8 µM [quencher, partial curve].

Question: For `COc1cc2c(cc1OC)[C@@H]1C(=O)c3ccc(OC)c(CC=C(C)C)c3OC1CO2` (stereo not given in full), which Potency is on record?
Answer: The Potency was inconclusive: 0.0355 µM [quencher, full curve].
